From PubChem BioAssay AID1569 (National Center for Advancing Translational Sciences (NCATS), 2009)
Inconclusive results, whose numbers are uncertain, are shown with a selection of clear calls. Where the call is inconclusive, the potency comes from a doubtful curve fit. Calls of active or inactive are those of the source. Calls come from the whole dose curve; as a rule, active = well fitted inhibition curve with a large enough effect; inconclusive = small, poorly fitted or top-dose-only effect, or effect the other way, or another doubt; inactive = no such curve, though single readings can be large or run the other way.
Potency is the fitted concentration of half-maximal effect; tags give direction and shape of the fitted curve.

Experiment: Confirmation Concentration-Response Assay for lipid storage modulators; note: nearly all actives have a fitted effect of over 80% in size;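 for activity change, negative = inhibition: -100% = full block of lipid deposition by 20 µM Triacsin C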
Conditions: Drosophila S3 cells, lipid droplet BODIPY/CellTracker ratio, 18-24 h; activity change, negative = inhibition: at 46.1 µM (top of the series)
How it was run: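 Cells at 5,000/well received compound as a titration plus oleic acid (added as 400 uM solution) and were incubated 18–24 h at 24 °C. BODIPY 493/503 lipid signal and CellTracker Red cell count were read by 488-nm laser-scanning cytometry. Activity was normalised to 20 uM Triacsin C.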
With `COc1ccccc1NC(=O)N(Cc1ccc2c(c1)OCO2)Cc1nc2ccccc2c(=O)[nH]1` the Potency was inconclusive: 560 nM [activator, full curve]. In the case of `COc1ccc(-n2nc3cc(C)c(NC(=O)c4cccnc4)cc3n2)cc1`, the Potency was inconclusive: 1990 nM [activator, full curve]. With `O=[N+]([O-])c1cccc(-c2nc(NCc3ccccc3)c3ccccc3n2)c1` the Potency was inconclusive: 1770 nM [activator, full curve]. With `O=C(NCCCNC(=O)c1ccccc1Cl)c1cnccn1` the Potency was inconclusive: 1990 nM [activator, partial curve, poor fit]. In the case of `CN(Cc1cccc(F)c1)C(=O)c1ccc2c(=O)n3c(nc2c1)CCC3`, the “activity change, negative = inhibition” value was inactive: -8.33%. In the case of `CCCCNC(=O)Cn1cnc2c(cnn2-c2ccc(C)c(C)c2)c1=O`, the Potency was inconclusive: 8880 nM [activator, partial curve, poor fit]. In the case of `CCOc1ccc(CCNC(=O)COC(=O)/C=C/c2ccccc2)cc1OCC`, the Potency was active: 3530 nM. For `CN(C)c1nc(Oc2ccc(N)cc2)nc(N(C)C)n1`, the Potency was inconclusive: 4450 nM [activator, partial curve]. In the case of `CCOc1ccc(CCNC(=O)CN2CCN(Cc3ccccc3C)C2=O)cc1OCC`, the “activity change, negative = inhibition” value was inactive: -49.3%. For `CC(=O)Nc1cc(NC(C)=O)cc(C(=O)N2CCCC3CCCCC32)c1` (centres undefined), the Potency was inconclusive: 8880 nM [activator, full curve, poor fit]. With `O=C(Nc1ccc(N2CCOCC2)cc1N1CCOCC1)c1ccc(Br)cc1` the “activity change, negative = inhibition” value was inactive: 0%. With `CCN(CC(=O)Nc1c(F)cccc1F)C(=O)CCCc1c[nH]c2ccccc12` the Potency was active: 628 nM. In the case of `COc1ccc(-c2noc(-c3ccccc3-c3ccccc3)n2)cc1OC`, the Potency was inconclusive: 1410 nM [activator, partial curve]. In the case of `CCOc1cc2nc(-c3ccc(OC)c(OC)c3)nc(NCCCN3CCOCC3)c2cc1OC`, the Potency was inconclusive: 2810 nM [activator, full curve]. For `COc1ccccc1N(Cc1ccccc1)S(=O)(=O)c1cccc(C(=O)Nc2cccc(C)n2)c1`, the Potency was inconclusive: 6280 nM [activator, partial curve, poor fit]. With `c1ccc(-c2csc3ncnc(NCC4COc5ccccc5O4)c23)cc1` (centres undefined) the Potency was active: 1990 nM. In the case of `O=C(N/N=C/C=C\c1ccccc1[N+](=O)[O-])c1cccnc1`, the Potency was inconclusive: 3970 nM [activator, full curve]. For `Fc1ccc(CNc2nc(-c3ccccc3)nc3ccccc23)cc1`, the activity change, negative = inhibition was inconclusive: 192% [activator]. In the case of `Cc1nc2sc(C(N)=O)c(N)c2c2c1CCCC2`, the Potency was inconclusive: 17700 nM [activator, partial curve]. With `Cc1cccc2cc(CN(CC3CCCO3)C(=O)c3cnccn3)c(=O)[nH]c12` (centres undefined) the Potency was inconclusive: 3530 nM [activator, full curve]. For `COc1ccc(C2CC(=O)Nc3cc(C)c(C)cc32)c(OC)c1OC` (centres undefined), the Potency was inconclusive: 2500 nM [activator, full curve]. With `COCCN(C(=O)c1ccccc1F)c1nnc(-c2ccc(OC)cc2)s1` the Potency was active: 25000 nM. For `CCCn1c(CCC(=O)Nc2ccccc2Cc2ccccc2)nc2cc(S(=O)(=O)N3CCOCC3)ccc21`, the Potency was inconclusive: 996 nM [activator, full curve]. For `COc1ccccc1CCC(=O)Nc1nc2ccccc2[nH]1`, the Potency was inconclusive: 3530 nM [activator, full curve]. With `Cc1ccc(OCC(=O)N2N=C(c3ccncc3)CC2(O)C(F)(F)F)cc1C` (centres undefined) the Potency was inconclusive: 2810 nM [activator, full curve]. In the case of `Cc1ccccc1NC(=O)C1CCCN1S(=O)(=O)c1cccc2cccnc12` (centres undefined), the Potency was inconclusive: 2500 nM [activator, partial curve]. For `COc1ccc(CCNC(=O)CCCc2ccccc2)cc1OC`, the activity change, negative = inhibition was inconclusive: 48% [activator]. In the case of `CCCNc1c(F)c(F)c2c(C)c3ccccc3nc2c1F`, the Potency was inconclusive: 1370 nM [activator, full curve, poor fit]. In the case of `c1ccc(-c2cnn3c(-c4ccccc4)c(-c4ccccc4)nc3n2)cc1`, the Potency was active: 3150 nM.
